Test results from publication PMC4336329 (PLoS ONE, 2015).
About 2,200 (0.71%) of roughly 310,000 compounds showed an effect of 50% or more. The effect is printed as a negative number. This is one part of the list.

The molecules below were run against human ether-à-go-go-related gene (hERG) potassium channel (human, UniProt Q12809) (assay: primary screen, population patch clamp on CHO cells stably expressing hERG).
human ether-à-go-go-related gene (hERG) potassium channel, sequence (Q12809 whole entry, looked up): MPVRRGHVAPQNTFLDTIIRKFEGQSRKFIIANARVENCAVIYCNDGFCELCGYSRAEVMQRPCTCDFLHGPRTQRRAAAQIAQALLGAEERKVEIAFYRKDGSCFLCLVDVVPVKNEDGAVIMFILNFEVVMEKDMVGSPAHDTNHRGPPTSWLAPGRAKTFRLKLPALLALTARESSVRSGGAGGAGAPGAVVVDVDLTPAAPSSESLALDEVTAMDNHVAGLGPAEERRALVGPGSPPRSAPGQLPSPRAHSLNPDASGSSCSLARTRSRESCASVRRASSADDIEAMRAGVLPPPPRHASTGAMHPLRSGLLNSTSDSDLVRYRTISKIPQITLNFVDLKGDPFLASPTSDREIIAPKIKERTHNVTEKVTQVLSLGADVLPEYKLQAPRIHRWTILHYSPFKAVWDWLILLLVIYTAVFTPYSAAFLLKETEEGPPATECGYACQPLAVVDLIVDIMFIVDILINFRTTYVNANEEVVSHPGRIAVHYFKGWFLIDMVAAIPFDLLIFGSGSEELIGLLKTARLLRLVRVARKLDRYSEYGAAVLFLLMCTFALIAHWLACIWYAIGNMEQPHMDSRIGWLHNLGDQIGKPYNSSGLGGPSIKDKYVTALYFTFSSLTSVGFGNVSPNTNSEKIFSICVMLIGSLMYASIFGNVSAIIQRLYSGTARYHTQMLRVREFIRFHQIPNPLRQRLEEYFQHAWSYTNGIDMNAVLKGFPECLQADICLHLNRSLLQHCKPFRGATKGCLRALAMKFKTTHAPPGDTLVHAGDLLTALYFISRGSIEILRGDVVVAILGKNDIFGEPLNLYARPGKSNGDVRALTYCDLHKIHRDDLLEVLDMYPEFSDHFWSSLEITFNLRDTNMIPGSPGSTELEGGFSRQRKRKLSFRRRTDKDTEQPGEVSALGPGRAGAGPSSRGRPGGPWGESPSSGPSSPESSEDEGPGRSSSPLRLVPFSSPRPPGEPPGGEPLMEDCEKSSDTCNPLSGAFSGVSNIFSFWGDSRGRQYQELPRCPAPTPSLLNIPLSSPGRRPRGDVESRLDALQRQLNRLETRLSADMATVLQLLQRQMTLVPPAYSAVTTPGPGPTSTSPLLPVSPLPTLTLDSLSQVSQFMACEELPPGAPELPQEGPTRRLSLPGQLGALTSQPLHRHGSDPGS

Point of comparison: `COc1ccc(NS(=O)(=O)c2ccc(Cl)c(N)c2)cc1Br`, “hERG current change (%, negative = inhibition) at 1uM” value 9.47%. Against it:
- O=C1COc2ccc(N3C(=O)C=CC3=O)cc2N1 — lower, 7.02%
- Cc1ccc(C(=O)NC(C)c2ccc(F)cc2)cc1 (centres unmarked) — higher, 18.6%
- COc1ccc(-n2nc(C(N)=O)nc2-c2ccccc2)cc1 — lower, -3.8%
- CCOC(=O)c1cnc(SCC(=O)NCc2ccco2)nc1N — lower, 8.46%
- O=C1CCCN1CCCNc1ccc2nnc(CCC(=O)N3CCN(c4ccc(F)cc4)CC3)n2n1 — higher, 14%
- Cc1cccc(OCC(=O)OC(C)C(=O)Nc2ccc(Cl)cn2)c1 (centres unmarked) — lower, 2.24%
- C/C(=N\Nc1ccc([N+](=O)[O-])cc1[N+](=O)[O-])C(C)(C)C(C(=O)O)C(=O)O — lower, 1.96%
- O=C(Nc1cccc(Cl)c1Cl)C1CCCO1 (centres unmarked) — lower, 9.21%
- Cc1ccc(S(=O)(=O)Nc2cccc(N(C)S(C)(=O)=O)c2)cc1[N+](=O)[O-] — higher, 9.68%
- Brc1cccc(OCCN2CCCCC2)c1.O=C(O)C(=O)O — lower, -0.584%
- Cc1ccc(C)c2c1cc(C)c1nnc(SCC(=O)c3cccs3)n12 — lower, 5.13%
- Cc1ccc2c(c1)C1C3CCC(C3)C1S(=O)N2 (centres unmarked) — higher, 13.3%
- NC(=O)c1nsc(C(=O)N(c2cccc(F)c2)C(C(=O)NCC2CCCO2)c2ccc3ncccc3c2)c1N (centres unmarked) — lower, 3.23%
- CC(Sc1nncn1C)C(=O)Nc1cc(C(F)(F)F)ccc1N1CCOCC1 (centres unmarked) — lower, -0.55%
- Cc1cc(OCC(=O)NNC(=O)c2cccc(F)c2)ccc1Cl — higher, 11.7%
- Cc1ccc(-c2nc3sc(C#N)c(N)n3c(=O)c2C#N)cc1 — higher, 11.8%
- COC(=O)c1cc(S(=O)(=O)N2CCC(C)CC2)ccc1F — lower, -12.9%
- C=CCOc1ccc(/C=C/C(=O)OCC(=O)NCC2CCCCC2)cc1 — lower, 4.57%
- CCN(c1ccc(OC)cc1)S(=O)(=O)c1nnc(NC(=O)c2ccccc2Cl)s1 — higher, 12.5%
- Cc1ccc(NC(=O)CN2C(=O)CCS(=O)(=O)c3ccccc32)cc1Cl — higher, 13.7%
- Cc1ccccc1CN1CCC(N2CCC(C(=O)NCC3CCCO3)CC2)CC1 (centres unmarked) — lower, 8.01%
- CCOCCOC(=O)NCCCCCCNC(=O)OCCOCC — higher, 13.3%
- COC1=C/C(=C/c2c(N)n3c(nc2=O)sc2cc(S(C)(=O)=O)ccc23)C=CC1=O — higher, 18.9%
- CCOP(=O)(OCC)c1ccc(O)cc1 — higher, 11.3%
- CC(=O)c1ccc(NC(=O)C2C3C=CC(C3=C(c3ccccc3)c3ccccc3)C2C(=O)O)cc1 (centres unmarked) — higher, 12%
- CCn1c(SCC(=O)c2ccc(NC(C)=O)c(OC)c2)nnc1-c1ccc(NS(C)(=O)=O)cc1 — higher, 18.4%
- c1ccc(CSc2nc3ncncc3[nH]2)cc1 — lower, 7.34%
- CC1CCCC(C)N1C(=O)COC(=O)c1cc(Br)ccc1Cl (centres unmarked) — higher, 17%
- COc1ccccc1N1C(=O)c2ccccc2NC1c1ccncc1 (centres unmarked) — lower, -8.11%
- CC1CCC(NC(=O)c2nn(C)c3c2CS(=O)(=O)c2ccccc2-3)CC1 (centres unmarked) — higher, 16.9%
- COc1cccc(NC(=O)C2=COCCO2)c1 — higher, 17.6%
- Cl.N#C/C(=C/c1cc(Cl)c(O)c(Cl)c1)C(=O)N1CCCCC1 — higher, 11.2%
- CCOc1ccc2nc(C)cc(C(=O)O)c2c1 — lower, 7.96%
- O=C(CN(Cc1ccccc1)C(=O)c1csnn1)NCCc1ccccc1 — lower, -2.12%
- Nc1ccccc1Oc1c(F)c(F)c(Oc2ccccc2N)c(F)c1F — higher, 22.6%
- O=C(NCc1cccnc1)c1ccc(CS(=O)(=O)Cc2ccc(Cl)cc2)o1 — lower, 3.03%
- COc1ccc(NC(=O)c2ccc(Cl)c(S(=O)(=O)NCC3CCCO3)c2)c(OC)c1 (centres unmarked) — lower, 9.43%
- O=C(Nc1nnc(S(=O)(=O)N2CCCCCC2)s1)c1ccccc1Cl — lower, 0.0815%
- CC1Cc2cc(S(=O)(=O)N3CCC(C(N)=O)CC3)ccc2N1C(=O)C1CC1 (centres unmarked) — higher, 15.5%
- CC(=O)Nc1ccc(NC(=O)C(C)OC(=O)c2c(NC(C)=O)sc(C)c2C)cc1 (centres unmarked) — higher, 12.8%
- CC(C)c1cc(CNC(=O)C2CCC(=O)N(CCc3ccc(Cl)cc3)C2)on1 (centres unmarked) — lower, -16.6%
- O=C(c1ccc(Cl)c(F)c1F)N1CCOCC1 — lower, 5.71%
- O=C(/C=C/c1ccccc1)OCC(=O)N1CCCC1 — higher, 9.83%
- CCC(=O)N1N=C(c2c(O)n(CCc3ccccc3)c(=O)[nH]c2=O)CC1c1ccc(OC)c(OC)c1 (centres unmarked) — higher, 24.2%
- CCOC(=O)N1CCN(C(=O)c2ccc3c(c2)N=C(CC)c2cc(C)ccc2S3)CC1 — higher, 15.5%
- Cc1ccc(NC(=O)CN2CCOCC2)c(Br)c1 — lower, 6.9%
- COc1cc2ncnc(Nc3ccc4c(c3)OCO4)c2cc1OC — higher, 12.1%
- CCOc1cc(C2C3=C(CCCC3=O)OC3=C2C(=O)CCC3)cc([N+](=O)[O-])c1O — higher, 10.3%
- COc1ccc(N2CCN(C(=O)C(OC(C)=O)c3ccccc3)CC2)cc1 (centres unmarked) — lower, -7.6%
- COc1ccc(-n2nccc2-c2nn(-c3cccc(OC)c3)c(=O)n(C)c2=O)cc1 — higher, 14.9%
- CCN(CC)c1ccc(/C=N/c2sc3c(c2C#N)C2CCN3CC2)c(O)c1 — higher, 27%
- COC(=O)c1ccc(CO/N=C/c2cccc([N+](=O)[O-])c2)cc1 — higher, 11.2%
- O=C(C1CCN(S(=O)(=O)c2ccc(Br)s2)CC1)N1CCCCC1 — lower, 7.43%
- COC(=O)c1ccc(-c2cc3onc(-c4ccccc4)c3c(=O)n2C)cc1 — lower, 8.56%
- Cc1ccc(/C=N/NC(=O)CNC(=O)c2cccs2)cc1 — higher, 12.2%
